Screen size: about 310,000 compounds; about 18,000 (5.8%) were called active. The inconclusive results got no clear call from the source; some entries with a clear call stand among them for comparison. Calls follow the shape of the dose curve; as a rule, active = well fitted inhibition curve with a large enough effect; inconclusive = small, poorly fitted or top-dose-only effect, or another doubt; inactive = no such curve, though single readings can be large or run the other way. No potency is given beside an inconclusive call; the fits are too rough.
Assay: Primary qHTS for delayed death inhibitors of the malarial parasite plastid, 48 hour incubation
Conditions: P. falciparum luciferase growth in erythrocytes; series mostly up to 28.7 µM
Method in brief: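 Parasite viability was followed by luminescence of a genomically integrated firefly luciferase. Cultures held 0.1% parasitemia at 2% hematocrit (final), incubated under 5% CO2 at 37 C.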
Potency is read from the fitted curve at half-maximal effect; tags tell the direction and shape of the fitted curve.

| SMILES | Potency |
| --- | --- |
| CCN(CC(=O)NCCc1ccc(F)cc1)Cc1nc2ccccc2c(=O)[nH]1 | inconclusive [inhibitor, single point] |
| O=C(N/N=C/c1ccc(Cl)cc1)c1sccc1OCc1ccc(F)cc1 | inconclusive [inhibitor, single point] |
| O=C(NCc1nc2ccccc2[nH]1)C1=C[C@H](c2ccc(C(F)(F)F)cc2)C[C@H](OCc2ccc(CO)cc2)O1 | inconclusive [inhibitor, full curve, poor fit] |
| O=C(CS(=O)(=O)c1ccc(F)cc1)NCc1ccccc1 | inactive |
| CC(C)Cc1cc(C(=O)N2CCC(N3CCC(C(=O)N4CCOCC4)CC3)CC2)n[nH]1 | inactive |
| COc1ccc(Cn2nnnc2CN(CCCN2CCOCC2)Cc2cc3cc(OC)ccc3[nH]c2=O)cc1 | inconclusive [inhibitor, single point] |
| CCOC(=O)c1sc(NC(=O)C(CC)Sc2nccn2C)nc1C (configuration not stated) | inconclusive [inhibitor, single point] |
| COC(=O)c1cn(C(=O)c2ccc(C)cc2C)c2ccccc12 | inconclusive [inhibitor, partial curve] |
| CC(C)c1ccc(NC(=S)Nc2ccc(OC(F)(F)F)cc2)cc1 | inconclusive [inhibitor, single point] |
| Cc1ccc2oc(C(=O)N3CCC(O)(c4ccccc4)CC3)c(C)c2c1 | inconclusive [inhibitor, full curve, poor fit] |
| COc1cc(NC(=O)COn2nnc3ccc(S(C)(=O)=O)cc32)cc(OC)c1 | inactive |
| O=C(Nc1ccccn1)C1CCCN1S(=O)(=O)c1ccc(Cl)cc1 (configuration not stated) | inactive |
| Cn1c(=O)c2c(nc(NCCNC(=O)c3ccco3)n2Cc2ccccc2F)n(C)c1=O | inactive |
| Cc1ccc(-c2noc(CCC(=O)NCCCN3CCN(c4cccc(Cl)c4)CC3)n2)cc1 | active: 9.28 µM |
| CCc1c(C)sc(NC(=S)NC(C)C2CCCO2)c1C(=O)OC (configuration not stated) | inconclusive [inhibitor, single point] |
| CC(=O)OCC1=C(C(=O)O)N2C(=O)C(NC(=O)Cn3nc(C(F)F)c(Cl)c3C)C2SC1 (configuration not stated) | inactive |
| N#CCCn1cc(/C=N/NC(N)=S)c(-c2ccc(-c3ccccc3)cc2)n1 | inconclusive [inhibitor, single point] |
| CC(Cc1ccccc1)NC(=O)c1ccc(N)cc1 (configuration not stated) | inactive |
| COc1ccccc1-c1nc2c3ccccc3nc(=S)n2[nH]1 | active: 4.65 µM |
| COc1ccc(C(CC(=O)c2ccccc2)CC(=O)c2ccccc2)cc1OC | inconclusive [inhibitor, single point] |
| Nc1nc(SCc2ccc(Br)cc2)[nH]c(=O)c1-c1ccccc1 | inconclusive [inhibitor, partial curve, poor fit] |
| COc1cc(C(=O)Oc2ccccc2/C=N/NC(=O)c2ccc(C)cc2)cc(OC)c1OC | inconclusive [inhibitor, partial curve] |
| CCOC(=O)C1(CC2CC2)CCN(S(=O)(=O)/C=C/c2ccccc2)CC1 | inactive |

| SMILES | Potency |
| --- | --- |
| CC(=O)c1cccc(NC(=O)CN2C(=O)COc3ccc(S(=O)(=O)N4CCOCC4)cc32)c1 | inconclusive [inhibitor, single point] |
| Oc1ccc2cc(Br)ccc2c1CN1CCCC1 | inconclusive [inhibitor, full curve] |
| COc1ccccc1CNC(=O)COC(=O)c1ccccc1-c1ccccc1 | inconclusive [inhibitor, single point] |
| O=C(Nc1ccc(F)cc1)C1CCN(C(=O)c2ccc(F)cc2)CC1 | inconclusive [inhibitor, single point] |
| CC1(C)CC(=O)C(C(C2=C(O)CC(C)(C)CC2=O)c2cccc(O)c2)C(=O)C1 (configuration not stated) | inconclusive [inhibitor, partial curve] |
| Cn1nc(NC(=O)CC23CC4CC(CC(C4)C2)C3)c2c(F)cccc21 | inconclusive [inhibitor, partial curve, poor fit] |
| CCn1c(O)c(C2=NCCCC2)c2ccccc21 | inactive |
| O=C(CN1C(=O)NC2(CCCCCC2)C1=O)c1ccc(Cl)cc1 | inconclusive [inhibitor, single point] |
| O=C(CN1C(=O)C2CC=CCC2C1=O)Nc1nnc(C2CC2)s1 (configuration not stated) | inactive |
| C(/CCc1ccccc1)=N\Nc1nc2ccccc2[nH]1 | inconclusive [inhibitor, single point] |
| COc1cccc(CNC(=O)CCn2ccc3cc(S(=O)(=O)N4CCCC4)ccc32)c1 | inconclusive [inhibitor, partial curve, poor fit] |
| O=C(N/N=C\c1ccc(Br)o1)C1COc2ccccc2O1 (configuration not stated) | inactive |
| COc1ccccc1N1CCN(CC(=O)c2c(C)n(C)c3ccccc23)CC1 | inconclusive [inhibitor, partial curve, poor fit] |
| Clc1cccc(Cl)c1Cn1nnc(N2CCCC2)n1 | inactive |
| CC(C)c1ccc(NC(=O)CSc2nc(=O)[nH]c3c2CCCC3)cc1 | inconclusive [inhibitor, partial curve] |
| Cc1ccc(S(=O)(=O)NCCc2ccncc2)cc1[N+](=O)[O-] | inconclusive [inhibitor, full curve] |
| CCc1nn(C(CC)C(=O)NCc2cccc(OC)c2)c(=O)c2cc3occc3n12 (configuration not stated) | inactive |
| O[C@@H]1[C@@H](O)C=C2CCN3Cc4cc5c(cc4[C@H]1C23)OCO5 (some centres not stated) | active: 0.329 µM |
| Cc1ccc(OCCNC(=O)Cn2cnc3c(=O)n(C)c(=O)n(C)c32)cc1C | inactive |
| CCC(C)NC(=O)C1CCCN(c2nc(C)cc(OC)n2)C1 (configuration not stated) | inactive |
| COc1ccc(OC)c(NC(=O)c2ccc(CSc3nnc(C)s3)cc2)c1 | inconclusive [inhibitor, partial curve, poor fit] |
| CO/N=C/C(C#N)=C/c1cc(C(=O)c2ccccc2)cn1C | inconclusive [inhibitor, full curve] |
| CCCS(=O)(=O)N1CCCC(C(=O)NCCN2CCC(Cc3ccccc3)CC2)C1 (configuration not stated) | inconclusive [inhibitor, full curve] |

| SMILES | Potency |
| --- | --- |
| COc1cccc(/C=C2\SC(=S)N(CCCC(=O)N(CCO)c3ccccc3)C2=O)c1 | active: 11.7 µM |
| CCOC(=O)c1ccc(CNC(=O)c2cc(C(C)(C)C)oc2C)o1 | inconclusive [inhibitor, partial curve, poor fit] |
| Fc1ccccc1-c1nc(-c2cnccc2C(F)(F)F)no1 | inconclusive [inhibitor, full curve, poor fit] |
| Cc1ccc2c(C)c(C(=O)N3CCC(O)(c4ccccc4)CC3)oc2c1C | inconclusive [inhibitor, single point] |
| COc1ccc(N=C2SC(CC(=O)Nc3ccc(F)cc3)C(=O)N2Cc2ccco2)cc1 (configuration not stated) | inconclusive [inhibitor, single point] |
| Cn1c2ccccc2c2cc(/C=N/NC(=O)c3ccccc3F)ccc21 | inconclusive [inhibitor, single point] |
| COc1ccccc1C(O)P(=O)(OC1CCCCC1)OC1CCCCC1 (configuration not stated) | inconclusive [inhibitor, partial curve] |
| CCC(=O)Nc1sc(Cc2ccccc2)c(C)c1C(N)=O | inconclusive [inhibitor, partial curve, poor fit] |
| O=C(O)CC1(CC(=O)NCc2ccncc2)CCCCC1 | inconclusive [inhibitor, single point] |
| CC(C)(C)NC(=O)CSc1nc2cccnc2n1C1CCCCC1 | inconclusive [inhibitor, partial curve, poor fit] |
| CCN1CCN(c2nc3c(c(=O)[nH]c(=O)n3C)n2CCCSc2ncccn2)CC1 | inactive |
| COc1ccccc1NC(=O)c1cc2cc(Br)ccc2oc1=N | inconclusive [inhibitor, single point] |
| COC(=O)c1ccc(Oc2nc(Nc3ccc(C)c(C)c3)nc(N(C)C)n2)cc1 | inconclusive [inhibitor, single point] |
| COC(=O)C1=COC(C)C2CN3CCc4c([nH]c5ccccc45)C3CC12 (configuration not stated) | inconclusive [inhibitor, single point] |
| Cc1[nH]n(-c2ccccc2)c(=O)c1/C=N\NC(=O)C1COc2ccccc2O1 (configuration not stated) | inconclusive [inhibitor, single point] |
| COCCn1c(=O)[nH]c2cc(C(=O)N3CCN(c4cc(C)ccc4C)CC3)ccc2c1=O | inconclusive [inhibitor, partial curve, poor fit] |
| COc1ccc(NC(=O)c2ccccc2Cl)cc1NC(=O)CN1CCOCC1 | inconclusive [inhibitor, partial curve] |
| COc1cc(OC)c2c(-c3ccccc3)cc(=O)oc2c1C(CC(=O)N1CCN(c2ccccc2)CC1)c1ccc(N(C)C)cc1 (configuration not stated) | inconclusive [inhibitor, partial curve] |
| Cc1ccc(C)c(S(=O)(=O)N2CCN(C(=O)CSc3ccccc3F)CC2)c1 | inconclusive [inhibitor, single point] |
| C/C(CC(=O)Nc1c(C)cc(C)cc1C)=N\NC(=O)c1cnccn1 | inactive |
| Cc1ccc(C(=O)NC(=C(Cl)Cl)S(=O)(=O)c2ccccc2)cc1 | inactive |

— PubChem BioAssay AID504832 (National Center for Advancing Translational Sciences (NCATS), 2011)
